For 89 compounds, survival results are on record in PubChem BioAssay AID463173 (ICCB-Longwood Screening Facility, Harvard Medical School, 2010).

Molecules are shown by their SMILES. About 1,700 (3.3%) of roughly 52,000 compounds were called active. Rule as the data show it: active = survival mostly below about 52% (no sharp cut-off); inactive = mostly above about 56%. The list shows a part of the results.

For this test, the system named is Wild type. The experiment in a line: S. aureus survival, RN4220 and DeltatarO strains – OD600, teichoic acid synthesis inhibitors, primary screen (AID 463173). Particulars: S. aureus RN4220 wild type/DeltatarO growth, OD600, 18 h, stronger effect = lower value, screened at 18.75 µg/mL (by protocol).
Consider `CC(=O)N1CCOc2cc(S(=O)(=O)NCc3ccc(C)cc3)c(Cl)cc21`, for which the survival was inactive: 83%.

With `O=C(O)CSC1=NCCN1`, the survival was inactive: 123%.

As to `CCSc1nc(-c2ccccc2OC)nc2c1Cc1c(CO)cnc(C)c1O2`, the survival was inactive: 89%.

Consider `Nc1ccc(CN2C(=O)c3ccccc3C2=O)cc1`, for which the survival was inactive: 107%.

For `CCOc1ccccc1NC(=O)c1cc(=O)c2ccc(C)cc2o1`, the survival was inactive: 84%.

With `COc1ccc(NC(=O)CSc2oc(-c3cccs3)nc2S(=O)(=O)c2ccc(C)cc2)c(OC)c1`, the survival is inactive: 68%.

`O=C(Cc1cccs1)NC1CC(=O)N(c2cccc(F)c2)C1` (centres undefined): the survival is inactive: 78%.

For the compound `COc1cc2nc(NCCC(C)C)n3nc(-c4ccccc4)nc3c2cc1OC`, the survival is inactive: 69%.

For the compound `CCCCS(=O)(=O)c1oc(-c2cccs2)nc1S(=O)(=O)c1ccccc1`, the survival was active: 0%.

On to `Cc1cc(C)n2c(Nc3ccc(Cl)cc3)c(-c3ccsc3)nc2n1`, for which the survival is inactive: 117%.

As for `Cn1c(=O)n(C)c2cc(NS(=O)(=O)c3ccc(F)cc3)ccc21`, the survival is inactive: 82%.

`COc1cccc(C(=O)Nc2ccc3nc(SCC(=O)N4CCOCC4)sc3c2)c1`: the survival is inactive: 75%.

For `Cc1ccc(OCC(=O)N(c2ccc(C)cc2)S(=O)(=O)c2ccc(Cl)cc2)cc1`, the survival was inactive: 66%.

On to `Cc1ccc2c(CN3CCN(C(=O)c4ccc(F)cc4)CC3)cc(=O)oc2c1`, for which the survival is inactive: 73%.

Consider `CNc1nnc(-c2ccccc2)s1`, for which the survival was inactive: 112%.

Consider `O=C(CS(=O)(=O)c1cccc2nsnc12)Nc1ccccc1`, for which the survival was inactive: 74%.

As for `CCOc1ccccc1NC(=O)CSc1nc(=O)[nH]c2c1CCCC2`, the survival is inactive: 65%.

In the case of `CC(C)(C)c1ccc(C(=O)NCCc2csc3nc(-c4ccccc4F)nn23)cc1`, the survival is inactive: 71%.

As for `CSCCC(NS(=O)(=O)c1ccc2c(c1)oc(=O)n2C)C(=O)N1CCN(c2cc(C)ccc2C)CC1` (centres undefined), the survival was inactive: 65%.

As for `COc1ccc(C2CC(=O)NC(NC(=O)c3ccc(Br)cc3)=N2)c(OC)c1OC` (centres undefined), the survival is inactive: 68%.

Regarding `COc1ccccc1CNC(=O)CN1C(=O)COc2ccc(S(=O)(=O)Nc3ccccc3)cc21`, the survival is inactive: 133%.

In the case of `CN(Cc1ccccc1)C(=O)c1ccc2c(c1)N(Cc1ccccc1F)C(=O)c1ccccc1S2(=O)=O`, the survival is inactive: 98%.

Turning to `O=C(Nc1cc(-c2nc3ccccc3s2)ccc1Cl)c1cc2ccccc2o1`, the survival is inactive: 124%.

With `COc1ccc(OC)c(NC(=O)Cn2cnc3ccc(S(=O)(=O)N4CCC(C)CC4)cc3c2=O)c1`, the survival is inactive: 77%.

As for `COc1cc(/C=C/c2nc(C#N)c(N3CCCCCC3)o2)cc(OC)c1OC`, the survival is inactive: 116%.

For `CN(C(=O)CSc1nc2ccc(NC(=O)COc3ccc(Cl)cc3)cc2s1)c1ccccc1`, the survival is inactive: 78%.

Consider `CCCOc1cccc(NC(=O)c2c(-c3ccccc3Cl)noc2C)c1`, for which the survival is inactive: 71%.

As for `O=C(Nc1cc2c(s1)CCCC2)c1ccccc1`, the survival was inactive: 122%.

Turning to `O=S(=O)(Nc1ccccc1C(F)(F)F)c1ccc(N2CCCCS2(=O)=O)cc1`, the survival is inactive: 136%.

In the case of `COc1ccc(Cl)cc1NS(=O)(=O)c1ccc2[nH]c3c(c2c1)CCCC3`, the survival was inactive: 63%.

Take `Cc1cccc(C)c1NC(=O)Cn1c(=O)n(Cc2ccccc2)c(=O)c2c(C)c(C(=O)N(C)C)sc21`: the survival is inactive: 110%.

Consider `CC(=O)N(Cc1cccnc1)c1nc2c(F)cc(F)cc2s1`, for which the survival was inactive: 71%.

Take `Cc1ccc(Cl)cc1-n1c(=O)cc(N2CCN(c3ccc(F)cc3)CC2)[nH]c1=O`: the survival is inactive: 79%.

For `Cc1cc(C)c2oc(C(=O)Nc3ccc(S(=O)(=O)N4CCCCC4)cc3)cc(=O)c2c1`, the survival was inactive: 82%.

Regarding `Cc1ccc(-c2nc3sc(CCNS(=O)(=O)c4cc(F)ccc4F)c(C)n3n2)cc1`, the survival was active: -4%.

For the compound `Cn1c(=O)c2c(-c3ccc(Cl)cc3)n(Cc3ccccc3)cc2n(C)c1=O`, the survival is inactive: 81%.

In the case of `O=C(CSc1nccn1Cc1ccco1)Nc1ccc(F)cc1`, the survival was inactive: 59%.

On to `COc1ccc(CNC(=O)CSc2nc3ccccc3nc2Cc2ccccc2)cc1`, for which the survival was inactive: 72%.

In the case of `COc1cccc(NC(=O)C2CCC(CNS(=O)(=O)c3ccc4c(c3)CC(C)N4C(C)=O)CC2)c1` (centres undefined), the survival was inactive: 95%.

As for `CCOC(=O)c1cc(S(=O)(=O)Nc2ccc(C)cc2Cl)[nH]n1`, the survival is inactive: 53%.

Consider `COc1cccc(/C=C/c2nc(C#N)c(NCCN(C)C)o2)c1`, for which the survival is inactive: 102%.

For the compound `COc1ccc(S(=O)(=O)NCCc2cc3ccc(C)c(C)c3[nH]c2=O)cc1`, the survival is inactive: 120%.

Regarding `COc1ccc(Cn2c(CCC(=O)NCc3cccc(Cl)c3)nc3cccnc32)cc1`, the survival is inactive: 130%.

For `CCOC(=O)c1[nH]c(C)c(CCC(=O)NCc2ccc(N(C)C)cc2)c1C`, the survival is inactive: 93%.

`CCCc1cc(=O)n2[nH]c(NCc3ccc(CC)cc3)nc2n1`: the survival is inactive: 90%.

Consider `O=C1c2[nH]nc(-c3ccccc3)c2C(c2ccccc2)N1c1cccc(C(F)(F)F)c1` (centres undefined), for which the survival is inactive: 41%.

Turning to `O=C1SC(Nc2ccc(Cl)cc2)C(=O)N1Cc1ccccc1` (centres undefined), the survival was inactive: 90%.

Take `Cc1ccc2oc(C(=O)Nc3ccc(S(=O)(=O)Nc4onc(C)c4C)cc3)cc(=O)c2c1`: the survival was inactive: 85%.

On to `O=C1CS(=O)(=O)C2(C(=O)N(Cc3ccc(F)cc3)c3ccccc32)N1c1cccc(C(F)(F)F)c1` (centres undefined), for which the survival was inactive: 135%.

As for `CC1CCN(S(=O)(=O)c2ccc3c(c2)N(CC(=O)NCCc2ccc(Cl)cc2)C(=O)CO3)CC1`, the survival was inactive: 97%.

Take `Cc1ccc(NC(=O)CCCn2c3ccccc3c(=O)c3cc(C)ccc32)c(Br)c1`: the survival was inactive: 64%.

Take `CCOC(=O)c1c(C)[nH]c(C)c1S(=O)(=O)N1CCC(C(=O)N2CCN(c3cc(C)ccc3C)CC2)CC1`: the survival was inactive: 84%.

With `Cc1c(Cl)cccc1Nc1nc(N)nc(CSc2nc3ccccc3s2)n1`, the survival was inactive: 63%.

Consider `COc1cccc(C(=O)NCC(=O)OCc2cc(=O)n3nc(C)sc3n2)c1`, for which the survival was inactive: 136%.

Take `O=C(CSc1ncc(S(=O)(=O)c2ccc(Cl)cc2)c(=O)[nH]1)Nc1ccc2c(c1)OCCO2`: the survival is inactive: 85%.

In the case of `CCCC(=O)Nc1nnc(SCc2cc(=O)c3ccc(C)cc3[nH]2)s1`, the survival is inactive: 127%.

For the compound `COc1cc2c(cc1OC)CN(C(=O)CSc1nc(C)cc(C)c1C#N)CC2`, the survival was inactive: 99%.

On to `CCCCNC(=O)C1=CC(c2ccc3c(c2)OCO3)=NS(=O)(=O)N1C`, for which the survival was inactive: 82%.

Take `CCOc1ccc(-c2c(C#N)c(N)nc3sc(C(=O)OC)c(N)c23)cc1`: the survival was inactive: 110%.

Consider `CCOc1ccc(N(C)C(=O)C2CCN(S(=O)(=O)c3ccc4c(c3)CCCN4C(C)=O)CC2)cc1`, for which the survival is inactive: 72%.

In the case of `CCC(Sc1nc2ccncc2[nH]1)C(=O)Nc1ccc(F)cc1` (centres undefined), the survival is inactive: 123%.

In the case of `COc1cccc(-n2c(=O)c3sc4ccccc4c3n(CC(=O)Nc3ccccc3OC)c2=O)c1`, the survival was inactive: 87%.

Consider `Cc1ccc(-n2nc(CO)c(C(=O)NCCc3ccccc3)n2)cc1`, for which the survival is inactive: 90%.

With `COc1cccc(C(C(=O)NC2CCCCC2)N(C(=O)c2ccccn2)c2cccnc2)c1` (centres undefined), the survival was inactive: 94%.

On to `O=S(=O)(c1ccccc1)c1nnn2c1nc(Nc1ccccc1)c1cc(Cl)ccc12`, for which the survival is inactive: 119%.

With `Cc1ccc(Cl)cc1N1CCN(C(=O)Cn2ncc3c([nH]c4ccccc43)c2=O)CC1`, the survival is inactive: 75%.

Consider `Cc1cc(C)cc(NC(=O)C(NS(=O)(=O)c2cccc3nsnc23)c2ccccc2)c1` (centres undefined), for which the survival is inactive: 80%.

Regarding `O=C(CSc1nnc(-c2ccc(Cl)cc2)o1)N1CCc2ccccc21`, the survival is inactive: 85%.

Take `Cc1ccc(Cn2cnc3c(oc4ccccc43)c2=O)cc1`: the survival is inactive: 89%.

For `CCCCOc1nnc(-c2ccc(OCC)cc2)c2ccccc12`, the survival was active: -1%.

For `COc1ccc(CCNC(=O)CCc2cn(Cc3ccc(C)cc3)c3ccccc23)cc1OC`, the survival was inactive: 70%.

Take `CCOC(=O)N1CCN(C(=O)c2ccc3c(c2)N(Cc2cc(C)ccc2C)C(=O)c2ccccc2S3=O)CC1` (centres undefined): the survival is inactive: 89%.

With `Cc1oc2ccc(O)c(CN(C)Cc3ccccc3)c2c1C(=O)Nc1cccc(Cl)c1C`, the survival was inactive: 39%.

For `CCCCn1c2ccccc2c2nnc(SCC(=O)Nc3ccc(NC(C)=O)cc3)nc21`, the survival is inactive: 89%.

Consider `Cc1ccccc1NC(=O)c1c2c(nc3ccccc13)C(=O)N(C1CCCCC1)C2`, for which the survival was inactive: 79%.

On to `CCCCn1c(=N)n(CC(O)COc2ccccc2)c2ccccc21` (centres undefined), for which the survival was inactive: 121%.

Regarding `O=C(Nc1onc2c1CCCC2)c1ccc(Cl)cc1`, the survival was inactive: 75%.

With `CCc1nc2nc(C)cc(Nc3ccc(Br)cc3F)n2n1`, the survival was inactive: 133%.

Turning to `COc1ccccc1-c1cc(C(F)(F)F)nc(S(=O)(=O)CCCC(=O)Nc2cc(C)ccc2O)n1`, the survival is inactive: 51%.

Turning to `Cn1ccnc1SCC(=O)N1c2ccccc2-c2c(ssc2=S)C1(C)C`, the survival is inactive: 114%.

Regarding `Cc1ccc2c(c1)c1c3n2CCN(C(=O)CN2CCN(C(=O)c4ccco4)CC2)C3CCC1` (centres undefined), the survival is inactive: 126%.

Regarding `CCc1c(C)sc(NC(=O)c2cc(-c3ccc(OC)cc3)on2)c1C#N`, the survival was inactive: 85%.

`CC(=O)Nc1ccc(S(=O)(=O)Nc2ccc(-c3cn4c(C)csc4n3)cc2)cc1`: the survival is inactive: 69%.

Turning to `COC(=O)c1cc(S(=O)(=O)N2CCN(c3cccc(C)c3)C(C)C2)c[nH]1` (centres undefined), the survival was inactive: 98%.

Consider `Cc1ccc2c(=O)c(C(=O)c3ccc(F)cc3)cn(CC(=O)NC3CCCCC3)c2n1`, for which the survival is inactive: 66%.

Consider `CCOc1ccc(CNC(=O)c2cc3c(=O)n(Cc4cccs4)ccc3nc2C)cc1`, for which the survival was inactive: 118%.

`COc1ccc(-c2nc3ccc(NS(=O)(=O)c4ccccc4)cc3o2)cc1`: the survival is inactive: 49%.

With `Cc1cc2cc(CN(CC3COCCO3)S(=O)(=O)c3ccc(F)cc3)c(=O)[nH]c2cc1C` (centres undefined), the survival was inactive: 101%.

`COc1cccc(CNC(=O)c2cc3n(n2)CCCN(Cc2ccc(C)cc2)C3=O)c1OC`: the survival was inactive: 70%.
